In US20250099474A1 (priority 2022, published 2025):

Tested on: SARS-CoV-2
Test: Phase 2/3 study, Phase 3 Part: SARS-CoV-2 viral RNA amount on Day 4
Format: in vivo, human
Settings: for Change from baseline in SARS-CoV-2 viral RNA amount on Day 4: Difference of least mean square (vs placebo) / Change from baseline in SARS-CoV-2 viral RNA amount on Day 4: Least mean square (covariance analysis) / Change from baseline in SARS-CoV-2 viral RNA amount on Day 4: Maximum value / Change from baseline in SARS-CoV-2 viral RNA amount on Day 4: Mean value / Change from baseline in SARS-CoV-2 viral RNA amount on Day 4: Median value / Change from baseline in SARS-CoV-2 viral RNA amount on Day 4: Minimum value: mild/moderate patients
[1] = ITT population, 375/125 mg group
[2] = ITT, onset to randomization less than 72 hours, 375/125 mg group
[3] = ITT population, 750/250 mg group
[4] = ITT, onset to randomization less than 72 hours, 750/250 mg group

Cn1cnc(Cn2c(=O)[nH]/c(=N\c3cc4cn(C)nc4cc3Cl)n(Cc3cc(F)c(F)cc3F)c2=O)n1 [(6E)-6-[(6-chloro-2-methyl-2H-indazol-5-yl)imino]-3-[(1-methyl-1H-1,2,4-triazol-3-yl)methyl]-1-[(2,4,5-trifluorophenyl)methyl]-1,3,5-triazinane-2,4-dione]
Decrease of adjusted estimated value of the change from baseline in SARS-CoV-2 viral RNA amount on Day 4 as compared with placebo group [1]: 1.2 log10 (copies/mL) | Decrease of adjusted estimated value of the change in SARS-CoV-2 viral RNA amount on Day 4 as compared with placebo group [2]: about 1.5 log10 (copies/mL) | Change from baseline in SARS-CoV-2 viral RNA amount on Day 4: Difference of least mean square (vs placebo) [1]: −1.20 log10 copies/mL | Change from baseline in SARS-CoV-2 viral RNA amount on Day 4: Least mean square (covariance analysis) [1]: −2.46 log10 copies/mL | Change from baseline in SARS-CoV-2 viral RNA amount on Day 4: Maximum value [1]: 4.34 log10 copies/mL | Change from baseline in SARS-CoV-2 viral RNA amount on Day 4: Mean value [1]: −2.646 log10 copies/mL | Change from baseline in SARS-CoV-2 viral RNA amount on Day 4: Median value [1]: −2.695 log10 copies/mL | Change from baseline in SARS-CoV-2 viral RNA amount on Day 4: Minimum value [1]: −5.71 log10 copies/mL | Change from baseline in SARS-CoV-2 viral RNA amount on Day 4: Difference of least mean square (vs placebo) [3]: −1.20 log10 copies/mL | Change from baseline in SARS-CoV-2 viral RNA amount on Day 4: Least mean square (covariance analysis) [3]: −2.46 log10 copies/mL | Change from baseline in SARS-CoV-2 viral RNA amount on Day 4: Maximum value [3]: 1.01 log10 copies/mL | Change from baseline in SARS-CoV-2 viral RNA amount on Day 4: Mean value [3]: −2.594 log10 copies/mL | Change from baseline in SARS-CoV-2 viral RNA amount on Day 4: Median value [3]: −2.710 log10 copies/mL | Change from baseline in SARS-CoV-2 viral RNA amount on Day 4: Minimum value [3]: −5.27 log10 copies/mL | Change from baseline in SARS-CoV-2 viral RNA amount on Day 4: Difference of least mean square (vs placebo) [2]: −1.47 log10 copies/mL | Change from baseline in SARS-CoV-2 viral RNA amount on Day 4: Least mean square (covariance analysis) [2]: −2.48 log10 copies/mL | Change from baseline in SARS-CoV-2 viral RNA amount on Day 4: Maximum value [2]: 1.43 log10 copies/mL | Change from baseline in SARS-CoV-2 viral RNA amount on Day 4: Mean value [2]: −2.737 log10 copies/mL | Change from baseline in SARS-CoV-2 viral RNA amount on Day 4: Median value [2]: −2.775 log10 copies/mL | Change from baseline in SARS-CoV-2 viral RNA amount on Day 4: Minimum value [2]: −5.71 log10 copies/mL | Change from baseline in SARS-CoV-2 viral RNA amount on Day 4: Difference of least mean square (vs placebo) [4]: −1.48 log10 copies/mL | Change from baseline in SARS-CoV-2 viral RNA amount on Day 4: Least mean square (covariance analysis) [4]: −2.49 log10 copies/mL | Change from baseline in SARS-CoV-2 viral RNA amount on Day 4: Maximum value [4]: 0.33 log10 copies/mL | Change from baseline in SARS-CoV-2 viral RNA amount on Day 4: Mean value [4]: −2.690 log10 copies/mL | Change from baseline in SARS-CoV-2 viral RNA amount on Day 4: Median value [4]: −2.790 log10 copies/mL | Change from baseline in SARS-CoV-2 viral RNA amount on Day 4: Minimum value [4]: −5.27 log10 copies/mL
